Test results taken from PubChem BioAssay AID1259400 (National Center for Advancing Translational Sciences (NCATS), 2018).
The campaign covered roughly 350,000 compounds. About 2,100 (0.6%) were called active. Inconclusive results, whose numbers are uncertain, are shown with a selection of clear calls.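 How the source made its calls: active means activity change of -60% or lower, but not beyond a set lower limit; inconclusive means change between -60% and -40%, or beyond the set limit; inactive means change above -40%.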

Target: Relaxin receptor 1 (Homo sapiens) (UniProt Q9HBX9)
Chain of UniProt Q9HBX9 (Q9HBX9 whole entry, looked up): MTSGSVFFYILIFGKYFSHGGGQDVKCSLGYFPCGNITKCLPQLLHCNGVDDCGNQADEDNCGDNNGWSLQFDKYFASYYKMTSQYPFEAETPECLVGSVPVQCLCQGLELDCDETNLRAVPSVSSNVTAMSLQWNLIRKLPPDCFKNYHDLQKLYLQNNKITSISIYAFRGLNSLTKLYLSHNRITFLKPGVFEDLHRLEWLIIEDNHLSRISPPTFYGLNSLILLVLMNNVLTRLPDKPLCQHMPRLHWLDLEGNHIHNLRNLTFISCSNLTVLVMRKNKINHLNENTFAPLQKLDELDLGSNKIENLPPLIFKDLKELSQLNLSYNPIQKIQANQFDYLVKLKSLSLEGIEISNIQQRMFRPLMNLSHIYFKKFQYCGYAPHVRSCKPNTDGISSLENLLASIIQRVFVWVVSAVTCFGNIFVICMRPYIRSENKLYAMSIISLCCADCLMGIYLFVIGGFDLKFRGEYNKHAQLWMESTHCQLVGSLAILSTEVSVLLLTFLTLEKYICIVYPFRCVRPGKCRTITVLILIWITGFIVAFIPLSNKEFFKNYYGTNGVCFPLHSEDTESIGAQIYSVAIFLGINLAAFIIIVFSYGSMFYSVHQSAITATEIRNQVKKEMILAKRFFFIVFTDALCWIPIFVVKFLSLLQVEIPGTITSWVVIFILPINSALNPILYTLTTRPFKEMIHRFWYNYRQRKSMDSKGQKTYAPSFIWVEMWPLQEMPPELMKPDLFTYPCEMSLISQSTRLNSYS
Test: qHTS Assay for Antagonists of the Relaxin Receptor RXFP1
Settings: HEK293-RXFP1, relaxin-stimulated cAMP HTRF, 30 min; at 57.5 µM; stronger effect = lower value
On the % scale 0 is the no-effect control and ±100 the full control effect.

Compound | activity change, negative = inhibition
O=C(Nc1cccc(S(=O)(=O)NC2=NCCC2)c1)c1cc(-c2ccco2)nc2ccccc12 | inconclusive: -54.1%
NC(=O)C1(N2CCCCC2)CCN(CCCN2c3ccccc3CCc3ccc(Cl)cc32)CC1 | inconclusive: -46.7%
O=C(CCCn1c(=S)[nH]c2ccsc2c1=O)NC1CCCCC1 | inconclusive: -40.7%
Cc1nnc(-c2cccc(Br)c2)c2cn(-c3ccccc3Cl)nc12 | active: -63.5%
CC(C#N)Sc1nnc(Nc2ccccc2)s1 (stereo not given) | inactive: 0.512%
O=C(CCC(=O)Nc1ccc(Br)cc1)N/N=C/c1ccccc1O | inconclusive: -48.2%
CC(=O)O[C@]1(C(C)=O)CC[C@H]2[C@@H]3C[C@H](C)C4=CC(=O)CC[C@]4(C)[C@H]3CC[C@@]21C | inconclusive: -41%
CN(C)CCCN(C(=O)CCc1ccccc1)c1nc2ccc(Cl)cc2s1 | inconclusive: -45.2%
O=[N+]([O-])c1ccc(Sc2cccc3cccnc23)cc1 | inactive: -5.26%
CCCCOc1ccc(Cn2c(=O)oc3ccc(C)cc32)cc1OC | inactive: -39.4%
COC(=O)c1nc(-c2ccccc2)nc(-c2ccccc2)c1C(=O)OC | inconclusive: -55.4%
C=CCc1cc(Cl)ccc1OCCCNC(C)CC (stereo not given) | active: -62.7%
O=C(CSc1nc(-c2ccc(F)cc2)[nH]c1-c1ccc(F)cc1)Nc1ccc2c(c1)OCCO2 | inconclusive: -59.3%
CC1CCN(C(=O)Cn2c(SCC(=O)Nc3ccc(F)cc3)nc3ccccc32)CC1 | inactive: -3.53%
CC(C)CN(C(=O)CN1C(=O)NC2(CCc3ccccc32)C1=O)C1CCS(=O)(=O)C1 (stereo not given) | inactive: -7.05%
COc1ccccc1/C=C(/CC(=O)NCc1ccc2c(c1)OCO2)c1nc2ccccc2s1 | inconclusive: -51.8%
COc1ccc(OCc2cc(C(=O)N(C)Cc3cc(C)no3)no2)c(Cl)c1 | inactive: 5.43%
Cc1ccc(S(=O)(=O)N(C(=O)c2ccco2)c2cc3sc(=O)oc3c3ccccc23)cc1 | active: -78.5%
Cn1c2c(c(=O)n(C)c1=O)C(C(F)(F)F)(C(F)(F)F)N=C(CCC1CCCCC1)N2 | active: -65.4%
CCCc1ccc(OCc2ccc(C(=O)N3CCCC3)o2)cc1 | inconclusive: -48%
COc1cc(OC)cc(-c2n[nH]c(=S)n2-c2ccc3c(c2)OCCO3)c1 | inconclusive: -40.4%
Cc1ccc(-n2ncc(C(=O)NC3CCN(Cc4ccccc4)CC3)c2C2CCN(C(=O)OC(C)(C)C)CC2)cc1C | inconclusive: -49.7%

Compound | activity change, negative = inhibition
Cc1cc(-n2c(C)cc(C(=O)CSc3ccccn3)c2C)no1 | inconclusive: -53.5%
COc1ccc(/C=C/c2nc(-c3ccccc3O)n[nH]2)cc1OC | active: -99.9%
CCN(CC(=O)Nc1c(F)cccc1F)C(=O)c1ccc2ccccc2n1 | inconclusive: -47.2%
O=C(Nc1ccccc1F)NC1CC1 | inactive: -14.9%
Cn1c(=O)c2cc(C(=O)N3CCN(c4cccc(C(F)(F)F)c4)CC3)sc2c2ccccc21 | inactive: -2.7%
COc1cccc(C(=O)Nc2c(C)n[nH]c2C)c1 | inactive: -4.12%
Cc1ccsc1CN(Cc1ccco1)C(=O)c1ccc(Cl)cc1 | active: -74.4%
CC1CC(C)CN(S(=O)(=O)c2ccc(Cl)cc2)C1 (stereo not given) | inconclusive: -43.7%
CCCc1ccc(C2=Nn3c(nnc3C(C)C)SC2)cc1 | inconclusive: -56.3%
Cc1cccc(Sc2ccc([N+](=O)[O-])cn2)c1 | inconclusive: -40.6%
Cc1ccc2nc(C)c(C(=O)N/N=C/c3ccc(C(=O)O)cc3)cc2c1 | active: -62.3%
Cc1sc(N/N=C/c2cccnc2)nc1-c1ccccc1 | inconclusive: -51%
COc1ccccc1/C=C\C=N\NC(=O)c1ccco1 | inconclusive: -40.5%
CCN(CC)S(=O)(=O)c1ccc(NC(=O)c2ccc3c(=O)n4c(nc3c2)CCCCC4)cc1 | inconclusive: -42%
Cc1c(C(=O)Nc2cccc(F)c2)oc2c1-c1nn(Cc3c(F)cccc3Cl)cc1CC2 | inconclusive: -43.4%
OC1(c2ccccc2)CC(c2ccccc2)c2ccccc2O1 (stereo not given) | active: -76.6%
O=C(COC(=O)c1c[nH]c2ccccc12)Nc1cccc(F)c1 | inactive: -2.53%
CC(C)Cn1c(N)c(C(=O)COC(=O)/C=C/c2cccs2)c(=O)n(C)c1=O | inconclusive: -42.9%
CCCC1c2ccsc2CCN1C(=S)NC (stereo not given) | inconclusive: -48.1%
COc1cc(C(=O)CC2(O)C(=O)N(Cc3ccccc3Cl)c3ccccc32)cc(OC)c1OC (stereo not given) | inconclusive: -44%
CCN(CC)C(=O)c1sc2[nH]c(=S)n(-c3ccccc3)c(=O)c2c1C | active: -66.8%
COc1ccc(C(=O)CSc2nc3ccc([N+](=O)[O-])cc3[nH]2)cc1 | inconclusive: -43.8%

Compound | activity change, negative = inhibition
CCCCCCCCCCCCCCCCCCNC(=O)OC1CCN(C(=O)OC[C@H](COC(=O)N(Cc2cccc[n+]2CC)C(=O)c2ccccc2OC)OC)CC1 | inactive: -25.7%
CC(C)(C)c1ccc(S(=O)(=O)N(CCCN2CCOCC2)Cc2cccs2)cc1 | inconclusive: -41%
COc1cc(C(=O)Nc2ccc3c(c2)OCCO3)ccc1OC(C)C | inactive: -2.22%
CC(C)CSc1nnc(-c2ccccc2)c(-c2ccccc2)n1 | inconclusive: -41%
Cn1nc(C(F)(F)F)c2cc(C(=O)Nc3ccc(F)c(Cl)c3)sc21 | active: -75.9%
O=C(Cn1cc(SCc2ccc(C(F)(F)F)cc2)c2ccccc21)N1CCCCCC1 | inconclusive: -41.9%
Cc1nnc(NC(=O)CSc2nc3c([nH]c4ccccc43)c(=O)n2-c2ccccc2)s1 | inconclusive: -45.3%
Cc1ccc(C(=O)Nc2ccccc2C(=O)O)cc1S(=O)(=O)NC1CCCCC1 | inactive: -17%
O=C(NC1CCCCC1)N1CCSC1=Nc1ccccc1 | inconclusive: -40.5%
Cc1nnc(N2CCCC(C(=O)Nc3cccc(C(F)(F)F)c3)C2)c2nn(-c3ccccc3)c(C)c12 (stereo not given) | inconclusive: -48.5%
N#Cc1cccc(NC(=O)Cn2nc(Cc3ccncc3)c3ccccc3c2=O)c1 | inactive: 18%
CC(C)S(=O)(=O)c1oc(-c2ccc(F)cc2)nc1S(=O)(=O)c1ccccc1 | active: -106%
CCOc1ccc(Cn2c(CNS(=O)(=O)c3ccc(Cl)s3)nc3cccnc32)cc1 | inactive: 5.12%
Cc1ccc(N=C2NC(=O)/C(=C/c3cccn3C)S2)c(C)c1 | inconclusive: -49.4%
COC(=O)c1cccnc1-n1c(=O)c2cccnc2n(CC(=O)Nc2ccccc2F)c1=O | inactive: 8.25%
CCC1COC(c2cccn2Cc2ccccc2Cl)=N1 (stereo not given) | inconclusive: -42.8%
Cc1ccc(N2C(=O)C3C(C2=O)N2CCCN2C3c2ccccc2)cc1C (stereo not given) | inconclusive: -52.5%
C/C(=N\NC(=O)c1cc2ccccc2cc1O)c1ccc(C)o1 | inconclusive: -49.4%
N=C1/C(=C\c2ccc(-c3cccc(Cl)c3)o2)C(=O)N=C2SC=C(c3ccccc3)N12 | inconclusive: -40.6%
OC(COc1ccccc1)CN1CCN(C(c2ccccc2)c2ccccc2)CC1 (stereo not given) | inactive: -9.79%
O=c1c2ccccc2cnn1Cc1n[nH]c(=S)n1-c1cc(Cl)cc(Cl)c1 | inconclusive: -54.9%
OCCN1CCN(CC/C=C2/c3ccccc3Sc3ccc(C(F)(F)F)cc32)CC1 | inconclusive: -43.1%

Compound | activity change, negative = inhibition
CC(COc1ccccc1)OC(=O)Nc1ccccc1 (stereo not given) | inactive: -15.5%
Cc1c(Cl)cccc1NC(=O)COCc1cc(-c2ccc3c(c2)OCO3)on1 | inconclusive: -44.5%
O=C(Nc1ccc2nc(SCC(=O)N3CCOCC3)sc2c1)c1cccc(Cl)c1 | active: -82.1%
CCOC(=O)c1c(C)n(-c2ccccc2)c2ccc(O)c(CN(C)C)c12 | inconclusive: -41.4%
C[C@@H](NCCCc1cccc(C(F)(F)F)c1)c1cccc2ccccc12 | active: -68.2%
CC(C)COc1ccc(C(=O)NCC2(N3CCN(C)CC3)CCCCC2)cc1 | inactive: -10.3%
CCc1nnc(SCC(=O)Nc2ccccc2Cl)nc1CC | inconclusive: -40.8%
CCOC(=O)c1ccccc1-n1c(C)cc(C2N=C(N)Nc3nc4ccccc4n32)c1C (stereo not given) | inactive: 18.9%
Cc1cc(C)cc(N(C(=O)c2snc(C(N)=O)c2N)C(C(=O)NCC2CCCO2)c2ccc(C)o2)c1 (stereo not given) | active: -60.6%
CCn1c(NCCCO)nc2c(c1=O)C(C)(CC)Cc1ccccc1-2 (stereo not given) | inactive: -1.09%
CCOc1ccc(Oc2nc(NCC(C)C)nc(N3CCOCC3)n2)nn1 | inactive: -17.3%
O=C(OCC1OC(n2ccc(=O)[nH]c2=O)C(Cl)C1O)c1ccccc1 (stereo not given) | inactive: -11.7%
CC(C)(C)OC(=O)N1CCC(c2c(C(=O)NCCN3CCc4ccccc4C3)cnn2-c2ccc(F)cc2F)CC1 | inconclusive: -43.2%
COc1ccc(NC(=O)/C(Cl)=C(/Cl)S(=O)(=O)Cc2ccccc2)cn1 | inconclusive: -52.9%
CC1(C)CC(=O)C2=C(C1)Nc1ccccc1NC2c1ccc([N+](=O)[O-])cc1 (stereo not given) | inconclusive: -47.6%
Cc1nn(C(C)(C)C)c(NC(=O)c2ccc(Cl)cc2Cl)c1Br | inconclusive: -43.5%
O=C(Nc1ncccc1O)c1cccc(S(=O)(=O)N2CCN(c3ccc(F)cc3)CC2)c1 | inconclusive: -40.1%
Cc1ccc(NC(=O)C2CCN(c3nc4ccccc4[nH]3)CC2)cc1Cl | inconclusive: -49.7%
Cn1c(NC(=O)c2ccc(Br)o2)cc(=O)n(C)c1=O | inactive: -4.61%
